Laboratory results published in the supplement of paper PMC11417369.
The other results are listed elsewhere or left out.

tested on: PfHDP1 homeodomain (GST-tagged); assay: gcPBM binding intensity (ln(normalized median fluorescence intensity)); higher = stronger DNA binding
Procedure, shortened: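 Plasmodium falciparum DNA-binding domains carrying a GST tag were expressed in E. coli and applied for 1 h, at about 25 μg on average, to an Agilent 4 × 180k array. The array held primer-extended double-stranded 36-bp intergenic genomic probes together with negative controls, and binding took place in 1× PBS with 1% milk, 0.2 mg/ml BSA, 0.5% salmon testes DNA and 0.03% Triton X-100. An Alexa488 anti-GST antibody detected bound protein, and the array was scanned at 488 nm. Binding intensity is taken as the highest Masliner-normalised natural-log median intensity across replicate spots of either probe orientation.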

| Sequence | gcPBM binding intensity (ln) |
| --- | --- |
| TGATTATTTTATATTTGTACACATATCATATAAAAA [XGTACX_site5868] | 6.61 |
| ACATAATATTGAAGAAGTACAAATTTTATTTATTAT [XGTACX_site4113] | 6.25 |
| ACGTTTTTGAGTAGTACACACACAATAAGGATGGAT [CACACA_site9044] | 7.11 |
| ATAATAATATAAAAATGTACATATATTTATAATTGT [XGTACX_site3429] | 6.25 |
| TCTTTGTATATATGTTCATTTGTAATATATATTCAT [TGCATGCA_negctrl_site467] | 6.48 |
| TATTTGTGAAGAAATTGTACTCATATCTACATTTAT [XGTACX_site2245] | 6.09 |
| AGTACATTATAGAATACACACCTATACATTTATATA [CACACA_site6391] | 6.46 |
| ATTTTATTTTTTCACACACACATATATATATATATA [CACACA_site3334] | 9.41 |
| CCCAGGAATATAAAATGTACATAAAAAATACAAATT [XGTACX_site1708] | 6.88 |
| TTTTTTTTTTTTGGATGTACTTAATGAAAATGTTAC [XGTACX_site8980] | 6.38 |
| TAAGCACAAGCACAAGCACACATTTATATATATATA [CACACA_site883] | 8.94 |
| TTATCATTTTTGGAATGTACTTACATTAAATATTTA [XGTACX_site4034] | 6.37 |
| TATATGCAAAATGTCACACATGTGATAAATACATAT [CACACA_site4302] | 7.53 |
| GTTGAAATAAAATTAGTGCATATATAAATATATATA | 8.28 |
| CTCACAATACTTACATGTACATATTATATATATAAA [XGTACX_site1880] | 7.23 |
| AACTAATAGTATATTACATGCAAAAGTAAAAGTAAA [TGCATGCA_site411] | 7.08 |
| TCATTCTTGTGTTTATGTACACATATTTATATTGTA [XGTACX_site710] | 6.45 |
| ACTGAAAAAAGAAATACACACATTCTGGATCAGATA [CACACA_site7760] | 6.39 |
| ATTATTATGTATTGCCGTACACATATTATCACAGAA [XGTACX_site3740] | 6.73 |
| TATAAATAAACATTTACACACTCTTATAATAAATAT [CACACA_site1679] | 6.48 |
| TATTATAATTAATATACACACGCTTATATATATATA [CACACA_site75] | 8.89 |
| TCTTCATATATAATTGTACACACAAAAACGACATTG [CACACA_site8645] | 6.96 |
| ACATGTACAGAAATTTATATATATATATATATATAT [CACACA_negctrl_site1584] | 9.5 |

| Sequence | gcPBM binding intensity (ln) |
| --- | --- |
| GGAACCATCCAAAAAAAAAAAAAAAATAATAATAAT [CACACA_negctrl_site383] | 6.17 |
| GTATTTTTTTTCTTTTGTACATATATATAAAGAATA [XGTACX_site4569] | 6.98 |
| TATTATATATATAAATGTACATATTATTTTTCTTTT [XGTACX_site8670] | 6.63 |
| AAGAATTTTCGATTTGCACACATTTGTAAAATAAAA [CACACA_site2354] | 9.98 |
| TTTAATCAACAAAATCTACACACTAATATGAAATAT [CACACA_site9250] | 6.4 |
| ATACACGTTTTACAATGTACAGAAAGTATACATAAT [XGTACX_site4585] | 6.44 |
| TATAATATGTTTGATGGTACACGTAAACACCTTGCA [XGTACX_site1643] | 6.33 |
| ATATACTTATATATTGCACACATCTAATATTTTGAA [CACACA_site3165] | 10.5 |
| ATAACTAAATTATATTGTACAAAATAATTATATATT [XGTACX_site1188] | 6.46 |
| TTTTAAAATAAAAAAATAAAAAAAGGGGAAAAAAAA [CACACA_negctrl_site847] | 5.91 |
| CATATCAAAAAAAAATGTACACGTATATACAATACA [XGTACX_site2660] | 6.34 |
| GTATTATAAAAAGGAAGTACATATATACATATTATA [XGTACX_site1271] | 6.31 |
| ATATGAACATTAAAAAAGTAAGGTATTCTCCCCTCT [CACACA_negctrl_site1299] | 6.41 |
| TTTATTCTAAAATATTAAAAATGATTTGTTTTTTCA [CACACA_negctrl_site1751] | 5.85 |
| TTATAAAAAAAAAAAAAAAAAAAAACCAATATAATA [CACACA_negctrl_site968] | 6.03 |
| AGACAATTTTTTAGTACACACATATAGATATATAAA [CACACA_site6832] | 6.62 |
| ATAATTATACAAAAGCGTACACGATATAAATCTACG [XGTACX_site8115] | 6.31 |
| CTTAAATCCATAATATGTACTTAAAAAGAAAAAATA [XGTACX_site4765] | 6.09 |
| TAATACTTAATGAACACATGCACATATACATAGTAT [TGCATGCA_site496] | 8.25 |
| TGTTTCTAAGAATTTACACACAAAATATTTCTACAT [CACACA_site7846] | 6.43 |
| AAAAAAAAAAATTGCACACAAAAAAAAAAAAAAAAA [CACACA_site2073] | 9.92 |
| TTAAAAATTAAAAGTAGTACATATAATATAAACATT [XGTACX_site424] | 6.11 |
| TAATATTACATTTATTGTACTTTGTTTTTATTTTAT [XGTACX_site1605] | 6.27 |

| Sequence | gcPBM binding intensity (ln) |
| --- | --- |
| TTTTTTTTTTTTTTTTGTACATATATATAAAAAATA [XGTACX_site2772] | 6.53 |
| AATTATACTCACGTTACACACACACTAGATATATAT [CACACA_site6133] | 7.6 |
| ATTGAAAAAATACAATGTACATAGTAATACAAAGAA [XGTACX_site4142] | 7.17 |
| CCCACAATGGTTTATATACACACTGTTGCAAATTCT [CACACA_site3066] | 9.76 |
| TATTGATAAAAAATATGTACATATATACATATATAT [XGTACX_site3821] | 6.47 |
| ATATATATATATATATGTACGTAAACAAAAATTTAT [XGTACX_site6780] | 9.43 |
| GTAATTAAGATATATACACACAAAGGCTATTAAATA [CACACA_site6604] | 6.38 |
| TATATAACTACAAGAACACACATATAAATATAAATA [CACACA_site7210] | 6.67 |
| ATGTATCGTAACAAATGTACAAGAGGATGTTTAGAC [XGTACX_site3355] | 7.26 |
| GTATTTATATGATTAACACACATATGTGGATTAATA [CACACA_site1315] | 6.48 |
| GATATATTTTGTTATGTAGATGTTGGTAGGAATTTT [GTGCAC_negctrl_site485] | 6.56 |
| TCATAAAAAGGAATCTTTAAGATATTTTATAAGCTC [XGTACX_negctrl_site18] | 6.12 |
| TTATAAATTTTTAATAGTACATAAAATTAAAGGTAA [XGTACX_site760] | 6.39 |
| ATGTGATAATTTAGGAGTACTGTCATAAGCATTTCT [XGTACX_site3091] | 6.28 |
| AGTGCATAATATTTATGTACGTATCACATATATTTT [XGTACX_site5166] | 10.7 |
| AATAAATGTCTGTTAATGCACACGATATGTCTATAT [CACACA_site2351] | 9.89 |
| TTTCTTTATTTATAATAATTTTTTATTAAAAATAGA [CACACA_negctrl_site1610] | 5.95 |
| AAAAATAAAATAAAATAAAATAAAAATAAAGAAAAA [CACACA_negctrl_site808] | 6.47 |
| AGTAGTCTGGAGAAAAGTACACAGTATCTGGTAACA [XGTACX_site2034] | 6 |
| ACAAATAAAAAAATTACACACATATATAATATATAT [CACACA_site1361] | 6.6 |
| ATTTGACACGTATATGCACACACCCGTAAGTGTCCA [CACACA_site8891] | 10.3 |
| TATTAACTCAATAGCGCACACTTTTAATATTTTATA [CACACA_site4973] | 7.56 |
| AAATATATATATATTACACACTATATATTTATTTAT [CACACA_site681] | 6.49 |

| Sequence | gcPBM binding intensity (ln) |
| --- | --- |
| TTCATTAAAACGAATACACACATAAATATATAAAAG [CACACA_site4824] | 6.62 |
| TATTATTTATATGATACACACGTACATATACACATA [CACACA_site9275] | 6.57 |
| TGTATACCTTAATATACACACATACATATATATATA [CACACA_site8370] | 9.01 |
| GGATATATTATATGTACACACATATATAACGGATAT [CACACA_site1309] | 6.74 |
| CAACAAAAGAAACACACACACACAAACACAAAAAAA [CACACA_site3389] | 6.85 |
| ATATATAAATATAGCATACACACAAAAAAATAAAAT [CACACA_site2332] | 7.04 |
| ATATACATATTTTTGACACACATTAGGAAAATATAT [CACACA_site4123] | 6.48 |
| ATGTAATAAATACTACGTACATATATATGTGTTAAT [XGTACX_site3265] | 6.51 |
| TCTTTGGTATTTACATGTACATATTCTTAAAAACAT [XGTACX_site3124] | 6.98 |
| TGTATAGTCTAAAGTTGTACAAAAAAAAAAAAAAAA [XGTACX_site5764] | 6.44 |
| GAAAATAAAATATTAGTGCATTATTTGATCAATAAT | 9.5 |
| TATTACTTAAATAAAAGTACATATAACATTTTAGTT [XGTACX_site196] | 6.05 |
| AATAGTTGCTAAAGGTGTACAATACATTTATTAGAA [XGTACX_site2773] | 6.66 |
| TATATATATAATATATGTACTCATATTAAGAGATAC [XGTACX_site1354] | 7.4 |
| AAAAAAAAAAAAAACACACACACACGCATACACATA [CACACA_site7364] | 6.87 |
| ATAAATAAAACAAATAGTACAATATAAAAAAAAAGG [XGTACX_site87] | 6.74 |
| TATACAGATATATATACACACATATATATAAATACA [CACACA_site4383] | 6.46 |
| AAGAGGATACACAATGTGCACTTTTTTTTTTTTTTT [GTGCAC_site9415] | 8.35 |
| TATATATGTATATTTTGTACGTATTTATTTACATGA [XGTACX_site4584] | 6.09 |
| AATGAGCTTTTTAAAAGTACTAAATATAAATAAATA [XGTACX_site3632] | 6.29 |
